The values below come from the supplement of paper PMC12632987.

B1: GBRAP_52_6256 (protein)
chain: MEEKAKEVAEEIYKLVLAGKLEEARKKAREFVESSNEEELELFIKEVRELILKSDKSDLEALEKMVEIVSEALEEAGKPEELVSLLEAEGYGAIYELEQR
B2: GBRAP_39_5657 (protein)
chain: EEEEENELEFSYLVALAVKYQVERGISTEELIAEGLARLRRLAAEHPEIRELVERLIELAESGDEETKLAAAGIALLAEEGTPLEEIREHIERFIAYLES
B3: GBRAP_184_5207 (protein)
chain: KIKEVTIEFENLEELKKKLEELKKEVEGFKGTLYIIVKAKEITLEMAEEILNMLKEIKENGYATEIIVDVEGEVSEEVLDKLLNGSKEIGVKLTVALSEE
B4: GBRAP_78_6655 (protein)
chain: KVEELIDKSMEYLDKASKLTKELPEEDRNELMDLLVEAATYLLESEENNFDLENLKKALEKLKKALEYAKSLNTPVAKKIAEELEKAIKYLEEAIKLLEE
B5: GBRAP_83_6879 (protein)
chain: AEEIAVAGPASRHEEIADAVIDLTKEEGYDVVVELLVTPEELEDVLALAERLAAAGVDVELEVHGVGVTPEQAAALEARLKAIFAAAGVNVTVTVRLEEP
B6: GBRAP_52_6381 (protein)
chain: MVEEAYEILRKAIELIIKGGPKEEVEELAKKLSEYSDETLIKAAELLAEEILKLSKEEAEKVLDATFELGDILEEEGVPEETVSYIEAIIGKAAYERLQK
B7: GBRAP_137_3621 (protein)
chain: KRVTITFYEEDGTLIAEIVADTSVDREALLALVEEVAAETGVQVVVAESEPDEPTVIYLVGAPEAVIAAVRRLIERIRAELGVEVELRSEGAEAAVAAVE
B8: GBRAP_83_6930 (protein)
chain: KEEIVVVGNSDNIEEAFDAAIDLSKEDGYKVILEIIITPEAFPKLLKAFKKLAEAGIDAEIHIVAEGATEEEAEELKKELEKIAKEAGVKVKVEVTLLEP
B9: GBRAP_160_4049 (protein)
chain: EEEKEELLEMVEEAEKEVIEVLDEEGAEAALTMFAGLSGEIIMEAFEDENASDELVDELAKVRDEGVKRLEENKNASKEELKKIIEEAAKRMKEIIKKHY
B10: GBRAP_184_5035 (protein)
chain: KVIERTIEAENEEELKKKVEALRKEVKGTGATLIVLAKIKNPTEEKVKLLIEGLGDMLRNGDVSEVVIGFEEELSEEITDVAIKTGDEEGVKVVLPISDE
B11: GBRAP_52_6330 (protein)
chain: SKEKVEELAEKLYEAIVAGKKEEAYALAKEAVETLSSEEILELTRIVAEKVSKEDDEVKERATEVFEYLAELVEEERGDEETAAEILGIVATTLYKAEQE
B12: GBRAP_43_5770 (protein)
chain: SKELVEGALDFALLAAESPEIPEETKVKAIIAALELAADEGYADKELVLKVIEAAAKNLSAEELEKIAKKAEEIAKKHPELKETYEEAVKVLKAAIKAKK
B13: GBRAP_52_6020 (protein)
chain: MEEELRAFAEEVLALVRAGRLEEARARVEEKVASLNEEEVKVLIEVVAELAAAAAPADHDAVWRLAEMIAEAMEKAGYDEVLADLLLARVAAALYEAEQR
B14: GBRAP_128_3363 (protein)
chain: VDEEKLEKVRELVKKMIESSVEEARKLAEEIVELMKTMSLEEQEAAVEIIKEYLPKLSKEKLEVLADVIREKRPEMDPEKANLLSDVEVEALNQAEELEE
B15: GBRAP_9_7150 (protein)
chain: LEELIEELEKIFREMVEEVREIVPEEVLPVVEKMEEEAKKRFEELKEDEEITEEEAVEEAKRIVREFTEAVSEKVDPETARMVRAIGDTALLEIEEIKEK
B16: GBRAP_160_4632 (protein)
chain: SEKLKKALEKVEEAEEFVKSLIPEVNVEQAANFLDTEFGSVILELYEEGLISEETADKMMEIVDEAVAYMRAHPDLTEEERKKLVEETAKKIKEVLKEEY
B17: GBRAP_128_3528 (protein)
chain: SLEEAKKKAAEVVEKIIASTPEEARKITEEFLEWLKTLSDEEVEAAADVLIENLPKLTAEKLDVVADVFEEKRPEFSPEKQKYIADVEVAALNEAEEKEE
B18: GBRAP_39_5651 (protein)
chain: EEEEENELLFDYYEALAVGYMVKNGISEEELIKKGLEILEKIAKEHPEIKELVEKLIELAKTGNEEVKLAAAGIALEYEEGLPIEEIKEHIEKFIKYVEK
B19: GBRAP_52_6087 (protein)
chain: MEERLEKLAKEIAEAVAAGKRDEALALMEKAIKELSVEEIKKLFKLAAELVAKLGEEAEELFVDLLDEAEDLLIEAGISEEDALLIVGDAEAALAKAVAA
B20: GBRAP_128_3488 (protein)
chain: ADPAAVAEARELVKEMAESDLERARELAERLVDLLAAADPETREAIVEAVEEEAPELSEEHLEVAMDVFRERRPEADPETAQAILDIDVVLGAELYEKME
B21: GBRAP_160_4845 (protein)
chain: SEKLEKVKKELEEARDFILSLVDEVSVEDLAKFADAELGSTGLYLLEEGYINEEAFDALLEENDKLVKELLANKDASPEEIKEIIKKHVERAIEEIEKLL
B22: GBRAP_57_6462 (protein)
chain: MSPLEKALEYFEKALELVKEGAPLEEILKEVKKGLDLLDKTTLLDILLLLDPNTRSDLSKEELKKKILELIRKALEEEGREAAAKRVRLIAGQVEMDLLD
B23: GBRAP_52_6089 (protein)
chain: MEEKLKKYAEELLKAAVAGDLDAATKLLLKMVAELTDEEVLEALKQLAKQIAALPPEERDKALDVALEALSRVADETGKEELMDLAMAQLAAEAYKAEQA
B24: GBRAP_95_7025 (protein)
chain: EDDQLLVDSLTEVLDTYVDLGDEEAARAAAKRLVEALKENGILPLPKDISVASAKLILDVAEETLDLETLKKLAEQVIKATKDEEVKKYAEEVIKRKEKK
B25: GBRAP_53_6408 (protein)
chain: MKKKIEELVKKILEAAEEATKADEEKQLELAKKIGELLKKLKEAGMSDEELTKLVVEIAKKLKEAGASDKVLVTLAQATKDLGLDEATAEVTELIVEDLE
B26: GBRAP_26_5461 (protein)
chain: MEEVEREAEERVREIAARLPDPRYAAAVVAEFSTELLEAEERIEAGEDPEKAFREARDEFLAFVRELMREGGLSEEEIAAFEEELAAVFDELEKRVLELL
B27: GBRAP_160_4062 (protein)
chain: EEEKEELIKMVEEAEKLILEVLDEEGVEAAIIMADGEFGSIIMEAASNEKASDELVDELAKIRDDLVKKLEENKNASKEEQKKIVKEAAEKAKKAIKELY
B28: GBRAP_74_6517 (protein)
chain: MAELLAALRAAAAAGDARAVAALAREIVERGSLEAIEEAARILVAFVAAHRDTLTEEELELLADVLAEVADALMERGGDSEVILAVAQAAYELEKLVEAR
B29: GBRAP_78_6609 (protein)
chain: ETKEKIQELLDKAIEKLRKIRKEVPEVAEQANDAEVLAGTALYMVDTGSESKEEIQETVEEAIKEAEELLKELEGKKEEAKKLAEEALKLLKEALKLLKE

In all, about 4,500 sequences were measured (“median log2 fold change of GCK-ALFA target abundance (FLAG IP / Myc IP barcode read proportion)”: median about 0.078, lowest 2% from about -0.6 on). The list shows a part of the results.

Sequence of GABARAP, O95166 (O95166 whole entry, the tested form may be a part): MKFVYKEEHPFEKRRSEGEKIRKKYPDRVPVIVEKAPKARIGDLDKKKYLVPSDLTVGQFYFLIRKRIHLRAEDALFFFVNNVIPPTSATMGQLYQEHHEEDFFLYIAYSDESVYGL

The target of this assay is GABARAP, O95166. Put plainly: median log2 fold change of GCK-ALFA target abundance (FLAG IP / Myc IP barcode read proportion) (log2 ratio); each designed protein is fused to an ALFA-tag nanobody in HEK293 cells to bring the named protein to FLAG-tagged glucokinase (GCK); Myc marks an untargeted standard; higher = target protein stabilised (more abundant). To be noted: target protein: 3xFLAG-MCP-GCK-ALFA reporter; HEK293 landing pad (RPLP). Summed up:
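The readout is target abundance, the per-binder median log2 ratio of FLAG to Myc barcode read proportions. It came from HEK293 landing-pad cells carrying a recombined ALFA-nanobody-fused binder library, induced with 2 μg mL^−1 doxycycline and transfected with a plasmid for a FLAG-tagged target and a Myc-tagged standard. After 48 h, lysates were immunoprecipitated with anti-FLAG and anti-Myc, and circular RNA barcodes were reverse transcribed, amplified and sequenced. Each barcode needed a proportion of at least 10^−7 in both replicates and each binder at least 3 barcodes per replicate, a pseudocount of 10^−6 was added, and the replicates were pooled.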
In the case of B1, the “median log2 fold change” value was 0.0683.
The figure for B2 is 0.168.
The same measure for B3: -0.166.
In the case of B4, the “median log2 fold change” value came out at 0.0181.
The figure for B5 is 0.0381; for B6 it is 0.0556.
The figure for B7 is -0.19; for B8 it is -0.159; for B9 it is -0.0355.
The figure for B10 is -0.357.
Take B11: the “median log2 fold change” value was 0.262.
The same measure for B12: 0.151.
The figure for B13 is 0.0489; for B14 it is 0.332.
The figure for B15 is 0.158; for B16 it is -0.0792.
B17: the “median log2 fold change” value is 0.266.
The figure for B18 is -0.0265; for B19 it is -0.234; for B20 it is -0.0521.
In the case of B21, the “median log2 fold change” value is -0.12.
B22: the “median log2 fold change” value was -0.108.
The same measure for B23: 0.168.
The same measure for B24: 0.257.
The same measure for B25: 0.292; for B26: 0.12.
As for B27, the “median log2 fold change” value was 0.0878.
The same measure for B28: -0.222; for B29: 0.418.
